Measurements taken from the supplement of paper PMC7826260.
This is one part of the list. Cleavage of a single-stranded DNA pool by Rep nickase domains was read by sequencing at 3 µM enzyme and 37 °C for 1 h; the strands have 90 letters, of which the middle is given. Values are log2 of uncut reads against the no-enzyme pool; more negative means more cut, near 0 not cut, and no call is made. The scaling is to total reads; where an enzyme cuts many sequences, the uncut ones exceed 0.

Legend:
Test in all cases: uncleaved DNA left, log2 of reads against the no-enzyme library (log2 ratio); higher = less cleavage (more negative = more Rep cleavage of the k-mer); sequences stand for … in CTCGTCCG…ACCGGAGA
[1] = system: T1, Rep nickase domain of Muscovy duck circovirus
T1 sequence (residues 1-111 of Rep, tag left off): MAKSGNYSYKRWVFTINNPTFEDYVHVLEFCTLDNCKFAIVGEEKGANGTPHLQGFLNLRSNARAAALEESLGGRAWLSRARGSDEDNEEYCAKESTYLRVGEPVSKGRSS
Method: (§1)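 A pool of 90-nt single-stranded DNAs with seven random bases just before the constant AC of the nick site (name = the seven bases) was cut by 3 µM recombinant His6-SUMO-tagged Rep nickase domain (300 nM DNA, 50 mM HEPES pH 8.0, 50 mM NaCl, 1 mM MnCl2, 1 h, 37 °C, three replicates). Uncut DNA was amplified and sequenced.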

[2] = system: T2, Rep nickase domain of banana bunchy top virus
T2 sequence (residues 1-94 of Rep, tag left off): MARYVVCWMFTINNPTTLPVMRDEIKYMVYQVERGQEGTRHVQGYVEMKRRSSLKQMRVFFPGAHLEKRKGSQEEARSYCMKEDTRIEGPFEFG
Method: as §1

[3] = system: T3, Rep nickase domain of cabbage leaf curl virus
T3 sequence (residues 1-116 of Rep, tag left off): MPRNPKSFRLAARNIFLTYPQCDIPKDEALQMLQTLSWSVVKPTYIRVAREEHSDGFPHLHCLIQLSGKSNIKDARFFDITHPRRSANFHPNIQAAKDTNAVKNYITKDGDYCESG
Method: as §1

[4] = system: T4, Rep nickase domain of chickpea chlorotic dwarf virus
T4 sequence (residues 1-124 of Rep, tag left off): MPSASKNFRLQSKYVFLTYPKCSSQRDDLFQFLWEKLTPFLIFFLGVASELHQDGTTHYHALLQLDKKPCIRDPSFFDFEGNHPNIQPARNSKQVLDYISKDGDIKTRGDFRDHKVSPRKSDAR
Method: as §1

[5] = system: T5, Rep nickase domain of faba bean necrotic yellows virus
T5 sequence (residues 1-98 of Rep, tag left off): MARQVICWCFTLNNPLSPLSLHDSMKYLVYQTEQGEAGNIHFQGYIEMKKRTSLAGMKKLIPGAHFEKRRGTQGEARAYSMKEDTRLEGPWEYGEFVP
Method: as §1

[6] = system: T6, Rep nickase domain of maize striate mosaic virus
T6 sequence (residues 1-117 of Rep, tag left off): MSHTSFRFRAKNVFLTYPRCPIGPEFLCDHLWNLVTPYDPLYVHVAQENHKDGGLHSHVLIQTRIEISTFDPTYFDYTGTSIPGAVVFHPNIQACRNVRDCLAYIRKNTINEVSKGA
Method: as §1

[7] = system: T7, Rep nickase domain of porcine circovirus 2
T7 sequence (residues 2-116 of Rep, tag left off): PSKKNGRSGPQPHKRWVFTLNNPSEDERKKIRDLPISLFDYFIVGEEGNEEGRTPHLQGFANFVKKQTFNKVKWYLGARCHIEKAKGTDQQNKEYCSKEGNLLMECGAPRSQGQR
Method: as §1

[8] = system: T8, Rep nickase domain of tomato yellow leaf curl virus
T8 sequence (residues 1-136 of Rep, tag left off): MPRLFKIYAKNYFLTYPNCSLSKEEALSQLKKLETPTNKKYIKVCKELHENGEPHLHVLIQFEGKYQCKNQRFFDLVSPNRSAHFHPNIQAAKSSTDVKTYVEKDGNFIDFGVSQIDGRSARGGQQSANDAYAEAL
Method: as §1

[9] = system: T9, Rep nickase domain of wheat dwarf virus
T9 sequence (residues 1-137 of Rep, tag left off): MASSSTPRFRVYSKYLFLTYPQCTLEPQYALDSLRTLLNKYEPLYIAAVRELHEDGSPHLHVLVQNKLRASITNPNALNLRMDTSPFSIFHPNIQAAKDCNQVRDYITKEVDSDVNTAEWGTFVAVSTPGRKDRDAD
Method: as §1

## AGAGACA
[1]
  uncleaved DNA left (log2): -0.0273
[2]
  uncleaved DNA left (log2): 0.0825
[3]
  uncleaved DNA left (log2): 0.209
[4]
  uncleaved DNA left (log2): 0.825
[5]
  uncleaved DNA left (log2): -0.0176
[6]
  uncleaved DNA left (log2): 1.57
[7]
  uncleaved DNA left (log2): 0.165
[8]
  uncleaved DNA left (log2): 0.00298
[9]
  uncleaved DNA left (log2): 0.0501

## GCTGTTT
[1]
  uncleaved DNA left (log2): -0.0237
[2]
  uncleaved DNA left (log2): 0.138
[3]
  uncleaved DNA left (log2): 0.175
[4]
  uncleaved DNA left (log2): -0.429
[5]
  uncleaved DNA left (log2): 0.0443
[6]
  uncleaved DNA left (log2): 0.685
[7]
  uncleaved DNA left (log2): -0.105
[8]
  uncleaved DNA left (log2): 0.0467
[9]
  uncleaved DNA left (log2): 0.135

## AAACTCA
[1]
  uncleaved DNA left (log2): -0.0161
[2]
  uncleaved DNA left (log2): 0.0891
[3]
  uncleaved DNA left (log2): -0.159
[4]
  uncleaved DNA left (log2): -2.2
[5]
  uncleaved DNA left (log2): 0.0347
[6]
  uncleaved DNA left (log2): -0.523
[7]
  uncleaved DNA left (log2): -0.137
[8]
  uncleaved DNA left (log2): 0.106
[9]
  uncleaved DNA left (log2): 0.0239

## CACACGA
[1]
  uncleaved DNA left (log2): 0.0352
[2]
  uncleaved DNA left (log2): -0.129
[3]
  uncleaved DNA left (log2): -0.301
[4]
  uncleaved DNA left (log2): -0.447
[5]
  uncleaved DNA left (log2): 0.036
[6]
  uncleaved DNA left (log2): -0.798
[7]
  uncleaved DNA left (log2): 0.194
[8]
  uncleaved DNA left (log2): -0.138
[9]
  uncleaved DNA left (log2): -0.00785

## GCGTGGT
[1]
  uncleaved DNA left (log2): -0.217
[2]
  uncleaved DNA left (log2): -0.0896
[3]
  uncleaved DNA left (log2): -0.0202
[4]
  uncleaved DNA left (log2): 0.0798
[5]
  uncleaved DNA left (log2): -0.101
[6]
  uncleaved DNA left (log2): 0.33
[7]
  uncleaved DNA left (log2): -2.18
[8]
  uncleaved DNA left (log2): -0.116
[9]
  uncleaved DNA left (log2): -0.22

## ACATCGA
[1]
  uncleaved DNA left (log2): 0.108
[2]
  uncleaved DNA left (log2): 0.0617
[3]
  uncleaved DNA left (log2): -0.643
[4]
  uncleaved DNA left (log2): -0.499
[5]
  uncleaved DNA left (log2): 0.029
[6]
  uncleaved DNA left (log2): -1.01
[7]
  uncleaved DNA left (log2): 0.196
[8]
  uncleaved DNA left (log2): 0.0093
[9]
  uncleaved DNA left (log2): -0.115

## CGACGTG
[1]
  uncleaved DNA left (log2): 0.136
[2]
  uncleaved DNA left (log2): 0.134
[3]
  uncleaved DNA left (log2): 0.0388
[4]
  uncleaved DNA left (log2): 0.565
[5]
  uncleaved DNA left (log2): 0.0857
[6]
  uncleaved DNA left (log2): 1.31
[7]
  uncleaved DNA left (log2): 0.0454
[8]
  uncleaved DNA left (log2): 0.0102
[9]
  uncleaved DNA left (log2): 0.0906

## TGGGTGA
[1]
  uncleaved DNA left (log2): -0.0797
[2]
  uncleaved DNA left (log2): -0.0978
[3]
  uncleaved DNA left (log2): 0.414
[4]
  uncleaved DNA left (log2): 0.962
[5]
  uncleaved DNA left (log2): 0.00716
[6]
  uncleaved DNA left (log2): 1.19
[7]
  uncleaved DNA left (log2): 0.0522
[8]
  uncleaved DNA left (log2): 0.0055
[9]
  uncleaved DNA left (log2): 0.0126

## TGGTTAC
[1]
  uncleaved DNA left (log2): -0.0406
[2]
  uncleaved DNA left (log2): 0.0471
[3]
  uncleaved DNA left (log2): 0.256
[4]
  uncleaved DNA left (log2): 0.491
[5]
  uncleaved DNA left (log2): -0.119
[6]
  uncleaved DNA left (log2): 1.61
[7]
  uncleaved DNA left (log2): -0.0241
[8]
  uncleaved DNA left (log2): 0.0516
[9]
  uncleaved DNA left (log2): -0.0258

## TATCAGC
[1]
  uncleaved DNA left (log2): -0.0341
[2]
  uncleaved DNA left (log2): 0.157
[3]
  uncleaved DNA left (log2): -0.315
[4]
  uncleaved DNA left (log2): -0.627
[5]
  uncleaved DNA left (log2): 0.000832
[6]
  uncleaved DNA left (log2): -1.12
[7]
  uncleaved DNA left (log2): 0.116
[8]
  uncleaved DNA left (log2): 0.0593
[9]
  uncleaved DNA left (log2): 0.105

## TAGTGAC
[1]
  uncleaved DNA left (log2): -0.131
[2]
  uncleaved DNA left (log2): -0.0263
[3]
  uncleaved DNA left (log2): 0.207
[4]
  uncleaved DNA left (log2): 0.584
[5]
  uncleaved DNA left (log2): -0.117
[6]
  uncleaved DNA left (log2): 0.623
[7]
  uncleaved DNA left (log2): -0.292
[8]
  uncleaved DNA left (log2): -0.0674
[9]
  uncleaved DNA left (log2): -0.0451

## TAGAAGT
[1]
  uncleaved DNA left (log2): 0.187
[2]
  uncleaved DNA left (log2): -0.202
[3]
  uncleaved DNA left (log2): -0.185
[4]
  uncleaved DNA left (log2): -1.14
[5]
  uncleaved DNA left (log2): -0.0954
[6]
  uncleaved DNA left (log2): -0.69
[7]
  uncleaved DNA left (log2): -3.37
[8]
  uncleaved DNA left (log2): -0.0224
[9]
  uncleaved DNA left (log2): 0.00303

## AAGAAAC
[1]
  uncleaved DNA left (log2): 0.192
[2]
  uncleaved DNA left (log2): 0.0738
[3]
  uncleaved DNA left (log2): 0.142
[4]
  uncleaved DNA left (log2): -0.123
[5]
  uncleaved DNA left (log2): 0.176
[6]
  uncleaved DNA left (log2): -0.232
[7]
  uncleaved DNA left (log2): 0.029
[8]
  uncleaved DNA left (log2): 0.0612
[9]
  uncleaved DNA left (log2): 0.194

## GAAAATA
[1]
  uncleaved DNA left (log2): -0.0192
[2]
  uncleaved DNA left (log2): -0.0242
[3]
  uncleaved DNA left (log2): 0.107
[4]
  uncleaved DNA left (log2): -1.73
[5]
  uncleaved DNA left (log2): 0.013
[6]
  uncleaved DNA left (log2): 0.723
[7]
  uncleaved DNA left (log2): 0.011
[8]
  uncleaved DNA left (log2): 0.0484
[9]
  uncleaved DNA left (log2): -0.00471

## CGTCTGT
[1]
  uncleaved DNA left (log2): -0.045
[2]
  uncleaved DNA left (log2): 0.0345
[3]
  uncleaved DNA left (log2): -0.00851
[4]
  uncleaved DNA left (log2): 0.469
[5]
  uncleaved DNA left (log2): -0.0626
[6]
  uncleaved DNA left (log2): 1.3
[7]
  uncleaved DNA left (log2): 0.0368
[8]
  uncleaved DNA left (log2): -0.128
[9]
  uncleaved DNA left (log2): 0.0343
